Test results taken from ChEMBL document CHEMBL4888484, “Replenishing the malaria drug discovery pipeline: Screening and hit evaluation of the MMV Hit Generation Library 1 (HGL1) against asexual blood stage Plasmodium falciparum ,using a nano luciferase reporter read-out” (2022).
About 410 (8.5%) of roughly 4,800 compounds showed an effect of 50% or more. This is one part of the list.

Tested on: Plasmodium falciparum
Experiment: Confirmatory screen in NF54 pLDH assay, in single point, at 2uM, 72h
Type: functional, Erythrocyte
Settings: timepoint 72 hour

| SMILES | % Inhibition [%] |
| --- | --- |
| Cc1cccc(NS(=O)(=O)c2cc(C(=O)NCc3ccc4c(c3)OCO4)ccc2Cl)c1C | 7 |
| Cc1cc2c(cc1C)O[C@H](C(=O)Nc1nnn[nH]1)C2 | -8 |
| Cc1nn(-c2nc3ccccc3[nH]2)c2c1[C@@H](c1cccnc1)CC(=O)N2 | 79 |
| Cc1nn(-c2ncccn2)c2c1[C@@H](c1ccccc1)CC(=O)N2 | -15 |
| O=C(Nc1nc(CCc2c[nH]c3ccccc23)n[nH]1)c1cccnc1 | 12 |
| Cc1cccc(C2(c3cccc(C)c3)c3ccccc3/C(=N\c3ccccc3)N2c2ccccc2)c1 | 15 |
| O=C(N[C@H]1CC[C@@H]2CCC[C@@H]21)c1c[nH]c(=O)c(Cl)c1 | 25 |
| Clc1ccc(Cn2cc(CNCCCn3ccnc3)c3ccccc32)c(Cl)c1 | 100 |
| O=C(c1ccccc1)C1C(c2ccccc2)N1C(=O)c1ccc(Cl)cc1Cl (stereo not given) | 6 |
| Cc1ccc(-c2ccnc3c(C(=O)N4CCOCC4)cnn23)cc1C | 2 |
| CC(C)c1cc(NS(=O)(=O)c2ccc3c(c2)OCCCO3)[nH]n1 | -17 |
| O=C(c1ccco1)N1CC(n2cnnc2[C@@H]2CCCO2)C1 | -1 |
| CCOc1cccc(Cn2c(=O)c3sccc3n(CC(=O)Nc3ccccc3)c2=O)c1 | 14 |
| NC(=O)CN1CCCN(C(=O)c2cnc3ccccc3n2)CC1 | 10 |
| O=C(c1ccoc1-c1ccccc1O)N1CCOCC1 | -10 |
| Clc1ccc(OCc2ccc(-c3nc4c5cn[nH]c5ncn4n3)cc2)c(Cl)c1 | -10 |
| O=C(C[C@H]1CCN(C(=O)Nc2ccccc2)C1)NC1CC1 | -4 |
| CC(NC(=O)N1CCCCC1)(C(F)(F)F)C(F)(F)F | 14 |
| CN(CC(=O)N(C)C1CCC(c2ccccc2)CC1)c1cnccn1 (stereo not given) | -5 |
| COc1ccc(CCNC(=O)c2cc3c(=O)[nH]c(C)cn3n2)cc1OC | 8 |
| CC(=O)N(Cc1ccccc1)c1ccc2c(c1)nc(Cn1nc(C)cc1C)n2C | 5 |
| COc1ccc(C)cc1NC(=O)N1CC[C@@]2(C1)Nc1cccnc1N=C2NC1CCCC1 | -2 |

| SMILES | % Inhibition [%] |
| --- | --- |
| Cc1cc(C)nc([C@@H](C#N)C(=O)c2ccnc(OCC(F)F)c2)n1 | -19 |
| CC1(C(=O)N[C@H]2CCO[C@H](c3ccccn3)C2)CC1F (stereo not given in full) | 4 |
| O=S(=O)(Cc1ccccc1)N1CCC2(CCCCC2)C1 | 6 |
| CCCc1nc(N2CCCN(C(=O)C3CCCCC3)CC2)c2c(C)nn(-c3ccccc3)c2n1 | 10 |
| Cc1ccc(N2C(=O)NC3c4ccccc4OC2(C)C3C(=O)Nc2ccc(Cl)cc2)cc1Cl (stereo not given) | -8 |
| COCCS(=O)(=O)Nc1ccc(Br)c(C)n1 | -19 |
| CCOc1ccccc1NC(=O)Cc1c(C)nc2nc(-c3cccnc3)nn2c1C | 3 |
| CC(C)N(C)c1ccc(NC(=O)C2=NN(C)C(=O)CC2)cc1F | 4 |
| O=C(NCc1ccoc1)NCC1(c2ccccc2)CC1 | -14 |
| O=C(Nc1ccc(N2CCCC2)c(F)c1)C(=O)Nc1ccon1 | -13 |
| CNC(=O)c1ccc(N(C)Cc2ccc(O)cc2)nn1 | 9 |
| Cc1cccc2ncnc(N(C)[C@@H](C)Cc3ccc(O)cc3)c12 | 84 |
| Cc1ccc(C(=O)N2CC(C)CC(C)C2)cc1NCc1ncc[nH]1 (stereo not given) | 8 |
| CC(C)Cc1nsc(N2CCOC3CCN(C)CC32)n1 (stereo not given) | 11 |
| CN(C)c1ccc(NC(=O)C2(N(Cc3ccccc3)C(=O)Cn3nnc4ccccc43)CCCCC2)cc1 | -8 |
| Fc1ccc(-c2cc3c(N4CCCCCC4)nccn3n2)cc1 | 10 |
| O=C(CCCC(=O)C1CC1)NC[C@H]1CCCOC1 | -12 |
| Cc1cc2nc(C)c(=O)n(Cc3ccc(C(=O)NCCN4CCCC[C@@H]4C)cc3)c2cc1C | 35 |
| CN(C)CCCNCc1ccc(Cl)cc1Cl | -7 |
| CCn1ncc(-c2cc(C(F)(F)F)c3c(C(C)C)nn(-c4ccc(F)cc4)c3n2)c1C | -1 |
| Cn1c(-c2ccc(Cl)c(Cl)c2)c[n+](CC(=O)c2ccc(-c3ccccc3)cc2)c1N | 9 |
| COc1ncnc(OC)c1C(=O)N1CCC[C@H]1C=Cc1ccccc1 | -8 |

| SMILES | % Inhibition [%] |
| --- | --- |
| CC(=O)c1cccc(NC(=O)c2nonc2C)c1 | -11 |
| CCCn1nc(-n2cnnc2)c(NS(=O)(=O)c2ccc(OC)c(OC)c2)c1C | 13 |
| C[C@H]1CCc2c(cnc3c(C(=O)NC4CC4)cnn23)C1 | 2 |
| CC(C)C1(CNC(=O)C(=O)c2cc(S(N)(=O)=O)cn2C)CC1 | 11 |
| CCc1ccccc1NC(=O)Cn1cnc2nc(N(C)Cc3ccccc3)sc2c1=O | -15 |
| Cc1ccc(N2CCCN(Cc3ccc(C(C)C)cc3)C2=O)c(NC(=O)c2ccco2)c1 | 11 |
| CCc1nc2cc(-c3noc(Cc4ccc(Cl)cc4)n3)ccc2o1 | 2 |
| Cc1noc2ncc(C(=O)N3C[C@H](C)OC(C)(C)C3)cc12 | 11 |
| CCCNC(=O)CNC(=NC1CC1)NCc1ccccc1C | 1 |
| O=C1C2C3CCCCN3C3(C(=O)N(Cc4ccc(F)cc4)c4ccccc43)C2C(=O)N1c1ccccc1 (stereo not given) | 6 |
| C[C@H]1CCc2c(cnc3c(C(=O)NCc4ccccc4)cnn23)C1 | 0 |
| c1ccc(-n2ncnc2[C@@H]2COCCN2)cc1 | 11 |
| CCCn1nccc1C(=O)NCCCn1ncc2c(C)cccc21 | 0 |
| O=C(Cn1nnc2ccccc21)N(Cc1ccccc1)C1(C(=O)Nc2ccc3c(c2)OCO3)CCCCC1 | -13 |
| O=C(NC[C@H]1CCCO1)N1CCN(c2nccs2)C(=O)C1 | 9 |
| CC[C@H](N)C(=O)N(CC1CC1C)C(C)C (stereo not given in full) | 9 |
| O=C(CN1C(=O)C[C@H](Cc2ccc(F)cc2)C1=O)N1CCNC1=O | 9 |
| CC(C)NC(=O)CN1CCC2(CC1)NC(c1ccc(OC(F)(F)F)cc1)=NO2 | 4 |
| O=C(Nc1ccc2c(c1)OCO2)[C@@H](c1cccc(F)c1)N(Cc1ccc(F)cc1)C(=O)Cn1nnc2ccccc21 | 1 |
| CCOc1ncccc1CNC(=O)CNC(C)=O | 13 |
| O=C1Nc2ccc(Br)cc2C1=O | 13 |
